From PubChem BioAssay AID1347417 (National Center for Advancing Translational Sciences (NCATS), 2020)
Hit rate of the full screen: of about 120,000 compounds, about 5,300 (4.4%) were called active. Inconclusive results, whose numbers are uncertain, are shown with a selection of clear calls. Calls follow the shape of the dose curve; as a rule, active = well fitted inhibition curve with a large enough effect; inconclusive = small, poorly fitted or top-dose-only effect; inactive = no such curve, though single readings can be large or run the other way. Where the call is inconclusive, the potency comes from a doubtful curve fit.
Potency is read from the fitted curve at half-maximal effect; tags tell the direction and shape of the fitted curve.

Assay: qHTS Primary assay for Inhibitors of Plasmodium falciparum Dd2 growth in vitro; also: nearly all actives have a fitted effect of over 65% in size;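 as to activity, negative = inhibition: plate controls were DMSO vehicle for no effect and reference drug for full effect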
Settings: P. falciparum Dd2 growth, SYBR Green, 72 h; activity, negative = inhibition: at 28.9 µM (top of the series) unless noted; series mostly up to 28.9 µM
In short: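 Infected erythrocytes (Dd2, 0.3% parasitemia, 2.5% hematocrit final) are added to compound in RPMI-1640/Albumax II medium, grown 72 h at 37C in low oxygen, then lysed with saponin/Triton-X containing SYBR Green and read by fluorescence.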
With `CN(Cc1ccc(OC(F)(F)F)cc1)C(=O)C1(c2ccc(Cl)cc2)CCOCC1` the Potency was inconclusive: 10 µM [inhibitor, single point].
With `CCC(CC)N1C[C@@H](CO)[C@H](c2nc(CCOC)no2)C1` the Potency was “inactive”.
In the case of `Nc1nc(NCc2ccc(Cl)cc2Cl)cc(C2CC(O)C2)n1` (stereo unspecified), the Potency is reported as inconclusive: 11.2 µM [inhibitor, single point].
For `CCCNC(=O)c1ccc2c(c1)sc1nc(-c3ccc(C)cc3)cn12`, the Potency was inconclusive: 17.8 µM [inhibitor, single point].
In the case of `Cc1cc(C)cc(C2(CNC(=O)C3CC4(CCNCC4)CN3)CCCC2)c1` (stereo unspecified), the Potency is reported as inconclusive: 17.8 µM [inhibitor, single point].
With `COc1cc2c(cc1Oc1ccccc1)NC(=O)C21CCN(Cc2nccn2C)CC1` the Potency was inconclusive: 3.16 µM [inhibitor, partial curve, poor fit].
For `Cc1ccc(NC(=O)CCCc2nnc3n(C)c(=O)c4sccc4n23)cc1F`, the Potency was inconclusive: 3.98 µM [inhibitor, partial curve].
In the case of `COC(=O)[C@@H]1Cc2ncn(Cc3ccc(Cl)cc3)c2CN1C(=O)c1ccc(C#N)cc1`, the Potency is reported as inconclusive: 1.41 µM [inhibitor, partial curve, poor fit].
For `COc1ccc(-c2cc([C@H]3CN4CC[C@H]3C[C@@H]4CNC(=O)c3ccc(C)cc3)n(C)n2)cc1`, the Potency was inconclusive: 8.91 µM [inhibitor, partial curve, poor fit].
In the case of `CCOc1ccccc1N(CC)C(=O)c1cc2c(=O)[nH]c3ccc(C)cc3c2s1`, the Potency is reported as inconclusive: 4.47 µM [inhibitor, partial curve, poor fit].
In the case of `CCN(C(=O)C1CCC(=O)N(CCc2ccc(Cl)cc2)C1)C(C)C` (stereo unspecified), the Potency is reported as “inactive”.
With `COc1cccc(CN2C(=O)OC3(CCN(Cc4ccc5c(c4)CCO5)CC3)C2(C)c2cccnc2)c1` (stereo unspecified) the Potency was inconclusive: 1.78 µM [inhibitor, full curve, poor fit].
In the case of `Cc1ccccc1N(C)C1CN(C(=O)c2ccccc2F)C1`, the activity, negative = inhibition is reported as inconclusive: -112% [inhibitor].
For `CS(=O)(=O)N1CCCN(C(=O)CN2CCCC2=O)CCNC(=O)CC1c1ccccc1` (stereo unspecified), the Potency was “inactive”.
With `COc1ccc(C(=O)NCc2nnc3c(-c4nc(C(C)C)no4)cccn23)cc1F` the Potency was inconclusive: 0.178 µM [inhibitor, full curve, poor fit].
In the case of `Fc1cccc(CN2CCC(N3CC(OCC4CC4)C34CCCCC4)CC2)c1` (stereo unspecified), the Potency is reported as active: 0.501 µM.
For `COc1cc(CN2CCN(Cc3cccc(SC)c3)CC2CCO)cc(OC)c1` (stereo unspecified), the Potency was “inactive”.
For `CCCn1cc2c3c(cccc31)CN(C(=O)c1ccccc1OC)CC2`, the Potency was inconclusive: 12.6 µM [inhibitor, single point].
For `COc1ccc(CCN2CCC(CN(C)Cc3nc(C(C)C)cs3)CC2)cc1`, the Potency was inconclusive: 10 µM [inhibitor, single point].
For `CNC(=O)[C@H]1C[C@H](Oc2ccccc2)CN1C(=O)NCc1ccc(F)cc1`, the Potency was “inactive”.
In the case of `Cc1noc(C)c1Cn1cc2c3c(cccc31)[C@H](CC(C)C)N[C@H](C(=O)NCC1CC1)C2`, the Potency is reported as inconclusive: 3.16 µM [inhibitor, full curve, poor fit].
In the case of `COc1cccc(N2C(=O)NC(=NC3CCCCC3)C23CCN([S+](=O)([O-])c2cccc(C(F)(F)F)c2)C3)c1` (stereo unspecified), the Potency is reported as inconclusive: 14.1 µM [inhibitor, single point].
For `Cc1oc2ccn(Cc3ccccc3F)c(=O)c2c1C(=O)NCc1cc(F)cc(F)c1`, the Potency was inconclusive: 3.98 µM [inhibitor, single point].
In the case of `COc1ccc(CNC(=O)C(=O)Nc2ccc(OC)cc2OC)cc1`, the Potency is reported as active: 5.62 µM.
For `CN(Cc1ccccc1)c1ncccc1CNC1CCSCC1`, the Potency was inconclusive: 3.98 µM [inhibitor, single point].
With `CC(C)c1nc2c(c(-c3ccc(Cl)cc3)n1)CCN(Cc1ccc(F)cc1)CC2` the Potency was inconclusive: 17.8 µM [inhibitor, single point].
In the case of `CN1CCOc2c(C(=O)NCCc3cnc[nH]3)cc(-c3ccc(N4CCOCC4)cc3)cc21`, the Potency is reported as inconclusive: 1.58 µM [inhibitor, partial curve].
In the case of `Cc1cnc(CCNC(=O)Cn2c(=O)oc3ccccc32)n1C1CC1`, the Potency is reported as inconclusive: 0.794 µM [inhibitor, full curve].
For `O=S(=O)(N1CCOCC1)N1CCCC(c2ccccc2)(c2ccccc2)C1`, the Potency was inconclusive: 17.8 µM [inhibitor, single point].
In the case of `Cc1ccccc1OC1(C(=O)O)CCN(Cc2ccc(CO)o2)CC1`, the Potency is reported as “inactive”.
With `Cc1nc(N2CCC(NC(=O)c3ccc(C)s3)CC2)cc(C(F)(F)F)n1` the Potency was inconclusive: 3.98 µM [inhibitor, single point].
With `CCN(CC)CCNC(=O)c1cn(CC)c2ccc(S(=O)(=O)N3CCOCC3)cc2c1=O` the Potency was inconclusive: 1.58 µM [inhibitor, full curve, poor fit].
In the case of `CC(=O)Nc1cccc(NC(=O)C(=O)NCCc2sc(-c3ccccc3)nc2C)c1`, the activity, negative = inhibition is reported as inconclusive: -65.9% [inhibitor] [at 5.79 µM].
With `CCOc1ccc(OCC)c(-c2nc3ccc(-c4ccc(OC)c(OC)c4OC)cc3o2)c1` the Potency was inconclusive: 7.94 µM [inhibitor, partial curve].
In the case of `Cn1cnnc1CCNC(=O)[C@H]1CNC[C@@H](C(=O)N2CCOCC2)C1`, the Potency is reported as “inactive”.
For `O=C(NCc1cccnc1)c1nc(-c2cccc(C(F)(F)F)c2)c2cnccn12`, the Potency was inconclusive: 12.6 µM [inhibitor, partial curve, poor fit].
For `COCCNc1ncc(-c2ccc(N3CCOCC3)cc2)c2c1OCC2`, the Potency was “inactive”.
With `CS(=O)(=O)N1CCCC(C(=O)NCCc2ccccc2)CCNC(=O)CC1` (stereo unspecified) the Potency was “inactive”.
With `COc1cc2c(cc1OCc1ccccc1)N(C(=O)CCc1ccccn1)CC21CCN(C)CC1` the Potency was inconclusive: 1.58 µM [inhibitor, partial curve, poor fit].
For `CCOc1ccc(N(C(=O)Cn2nnc3ccccc32)C(C(=O)NCc2ccccc2)c2ccc(OC)cc2)cc1` (stereo unspecified), the Potency was “inactive”.
With `Cc1cc(Cn2cc3c4c(cccc42)[C@H](CC(C)C)N[C@H](C(=O)NCCN(C)C)C3)no1` the Potency was active: 7.94 µM.
With `COc1ccc(N2CCN(C(=O)c3cn(CC(C)C)c(=O)c4c3c3ccccc3n4C)CC2)cc1` the Potency was active: 10 µM.
For `CCOc1cccc(CNC(=O)c2noc(-c3ccc4c(c3)OCO4)n2)c1`, the Potency was “inactive”.
For `Cc1ccc(C(=O)N2CCC3(CC2)CC(c2ccccc2)C(=O)N3C)s1` (stereo unspecified), the Potency was “inactive”.
In the case of `COc1ccc(CN2C=C(C(=O)OCc3nc(Cc4cccc(C)c4)no3)C(C)=NS2(=O)=O)cc1`, the Potency is reported as inconclusive: 11.2 µM [inhibitor, single point].
In the case of `Cc1ccc(C(=O)Nc2cccc(C(=O)O)c2)cc1S(=O)(=O)N1CCCC1`, the Potency is reported as “inactive”.
For `COc1ccc(Cn2c(SCc3ccc(C(=O)NC(C)C)cc3)nc3cccnc32)cc1`, the Potency was inconclusive: 7.08 µM [inhibitor, partial curve, poor fit].
In the case of `CN(C)C[C@@H]1CN(c2ncccn2)C[C@H]1NS(=O)(=O)c1cccnc1`, the Potency is reported as “inactive”.
For `Cn1ccc(NC(=O)C2(C)CCc3cnc(NCc4ccccc4)nc32)n1` (stereo unspecified), the Potency was “inactive”.
With `O=C(c1ccc2c(c1)N(Cc1ccc(F)cc1)C(=O)c1ccccc1S2=O)N1CCC(Cc2ccccc2)CC1` (stereo unspecified) the Potency was inconclusive: 15.8 µM [inhibitor, single point].
For `CSc1cccc(Nc2nc3c(S(=O)(=O)c4ccccc4)nnn3c3ccc(Cl)cc23)c1`, the Potency was inconclusive: 1.41 µM [inhibitor, full curve, poor fit].
In the case of `Cc1cn2nc(C(=O)N3CCC(NC(=O)c4cc(Cl)ccc4F)CC3)cc2c(=O)[nH]1`, the Potency is reported as inconclusive: 5.01 µM [inhibitor, partial curve, poor fit].
With `CCN(CCCNC(=O)c1cc2c(=O)n(C)c3ccccc3c2s1)Cc1ccccc1` the Potency was active: 5.01 µM.
In the case of `CN1C(=O)CC(C(=O)O)C12CCN(Cc1cccc(Cn3cccn3)c1)CC2` (stereo unspecified), the Potency is reported as “inactive”.
For `CCc1nnc(NC(=O)C2c3ccccc3C(=O)N(CCOC)C23CCCCC3)s1` (stereo unspecified), the Potency was inconclusive: 17.8 µM [inhibitor, single point].
With `Cc1ccc(-n2c(C3CCN(C(=O)c4ccccc4C(F)(F)F)CC3)n[nH]c2=O)cc1` the Potency was “inactive”.
For `Fc1ccc(CN2CCOC[C@H]2c2ncc(-c3cccnc3)[nH]2)cc1`, the Potency was inconclusive: 7.94 µM [inhibitor, partial curve, poor fit].
With `Cc1ccc2c(c1)C(c1ccc(F)cc1)N(C(=O)COc1ccc(Cl)cc1Cl)CC(=O)N2` (stereo unspecified) the Potency was inconclusive: 17.8 µM [inhibitor, single point].
In the case of `CCN1C(=O)Cc2ccccc2C1C(=O)NCc1cccc(F)c1` (stereo unspecified), the Potency is reported as “inactive”.
In the case of `CCC(=O)N1CCc2c(sc3ncnc(NCc4ccccn4)c23)C1`, the Potency is reported as inconclusive: 7.94 µM [inhibitor, partial curve, poor fit].
For `COc1cc(NC(=O)CC2CCCN(c3cn[nH]c(=O)c3)C2)cc(OC)c1` (stereo unspecified), the Potency was “inactive”.
For `COc1ccc2[nH]c(=O)c(CCC(=O)N3CCN(c4ccccn4)CC3)cc2c1`, the Potency was inconclusive: 6.31 µM [inhibitor, partial curve, poor fit].
For `O=C1CC2(CCN(Cc3ccsc3)CC2)Oc2ccccc21`, the Potency was inconclusive: 6.31 µM [inhibitor, partial curve, poor fit].
For `O=C(c1cnc2c(O)cccn2c1=O)N1CCC2(CC1)OCCCC2O` (stereo unspecified), the Potency was “inactive”.
In the case of `COc1ccccc1CNC(=O)C1CCCN(S(=O)(=O)c2ccc3c(c2)CCCN3C(C)=O)C1` (stereo unspecified), the Potency is reported as “inactive”.
In the case of `COCc1ccc2c(c1)c(OC(C)(C)C(=O)NCC1CCOCC1)nn2Cc1cccnc1`, the Potency is reported as inconclusive: 0.891 µM [inhibitor, full curve, poor fit].
